B1: Caulobacter ParB omega fusion; a variant is named by its letters at X, in order, B8GW30 (parent)
chain: MESVVVGEPGMSEGRRGLGRGLSALLGEVDAAPAQAPGEQLGGSREAPIEILQRNPDQPRRTFREEDLEDLSNSIREKGVLQPILVRPSPDTAGEYQIVAGERAWRAAQRAGLKTVPIMVRELDDLAVLEIGIIENVQRADLNVLEEALSYKVLMEKFERTQENIAQTIGKSXSHVANXMRLLXLPDEVQSYLVSGELTAXHARAIAAAADPVALAKQIIEGGLSVRETEALARKAPNLSAGKSKGGRPPRVKDTDTQALESDLSSVLGLDVSIDHRGSTGTLTITYATLEQLDDLCNRLTRGI

In all, about 81,000 sequences were measured (“one-hybrid fitness for binding parS DNA”: median about -0.17, highest 2% from about 0.51 on). The list shows a part of the results.

In this test the parent is B1. As to the kind of experiment: one-hybrid fitness for binding parS DNA (scaled: cognate 1, non-cognate 0); higher = stronger binding. The following applies: with parS DNA site. In a few lines: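 Bacterial one-hybrid selection in E. coli USO rpoZ- hisB- pyrF- with a HIS3 reporter carrying the site 19 bp from the promoter, screening Caulobacter ParB libraries with four specificity codons randomised (NNS). Cells grew 48 hours at 37°C on M9-minus-histidine plus 0.1 mM IPTG and 5 mM 3-AT. Plasmids before and after selection were Illumina-sequenced, three replicate libraries pooled, and variants under 10 reads dropped. Fitness is the log change in variant-to-wild-type read ratio, rescaled to cognate 1, non-cognate 0.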
Take SSNA: the “one-hybrid fitness for binding parS DNA” value was no more than 0.2.
As for KRAM, the figure is no more than 0.2; as for KTKG, no more than 0.2.
For KSEI, the “one-hybrid fitness for binding parS DNA” value was no more than 0.2.
In the case of PLLR it was no more than 0.2.
As for LYPL, the figure is no more than 0.2; as for NQDS, no more than 0.2; as for QQQP, no more than 0.2.
For GQQR, the “one-hybrid fitness for binding parS DNA” value is no more than 0.2.
As for YFLW, the figure is no more than 0.2.
As for SELM, the figure is no more than 0.2.
In the case of RYWT it was 0.787.
As to IRSI, the “one-hybrid fitness for binding parS DNA” value was no more than 0.2.
For the variant YSLM, the “one-hybrid fitness for binding parS DNA” value was no more than 0.2.
Consider GRAY, for which the “one-hybrid fitness for binding parS DNA” value was no more than 0.2.
Take GELN: the “one-hybrid fitness for binding parS DNA” value was no more than 0.2.
In the case of KPGV it was no more than 0.2; in that of GLEC, no more than 0.2.
As for WLTK, the “one-hybrid fitness for binding parS DNA” value is no more than 0.2.
In the case of TIVT, the “one-hybrid fitness for binding parS DNA” value is no more than 0.2.
As to EEPA, the “one-hybrid fitness for binding parS DNA” value was no more than 0.2.
On to VTVI, for which the “one-hybrid fitness for binding parS DNA” value is no more than 0.2.
In the case of VKLA it was no more than 0.2; in that of NVSR, no more than 0.2; in that of PYTQ, no more than 0.2.
As for PART, the figure is no more than 0.2; as for TTPP, no more than 0.2.
As for IEGG, the figure is no more than 0.2; as for KRFY, no more than 0.2.
As for EDVN, the “one-hybrid fitness for binding parS DNA” value was no more than 0.2.
In the case of QYSG it was no more than 0.2; in that of PQHW, no more than 0.2; in that of THRD, no more than 0.2.
On to SSTM, for which the “one-hybrid fitness for binding parS DNA” value is no more than 0.2.
As for ILPR, the figure is no more than 0.2; as for WHKM, no more than 0.2; as for GNQC, no more than 0.2.
Regarding HVQN, the “one-hybrid fitness for binding parS DNA” value is no more than 0.2.
In the case of KDNI it was no more than 0.2; in that of IATV, no more than 0.2.
As for AKGS, the figure is no more than 0.2; as for YLAR, no more than 0.2; as for SEPY, no more than 0.2.
In the case of SRNC it was no more than 0.2.
Consider SRGV, for which the “one-hybrid fitness for binding parS DNA” value was no more than 0.2.
In the case of VRPE it was no more than 0.2; in that of IDVR, no more than 0.2.
In the case of EGSD it was no more than 0.2; in that of PQFT, no more than 0.2; in that of CRRV, no more than 0.2.
In the case of EKRS it was no more than 0.2; in that of RAGI, no more than 0.2; in that of VYLK, no more than 0.2.
HVMS: the “one-hybrid fitness for binding parS DNA” value is no more than 0.2.
Regarding RFNF, the “one-hybrid fitness for binding parS DNA” value was no more than 0.2.
As for CPHV, the figure is no more than 0.2.
In the case of LTKH it was no more than 0.2; in that of HASW, no more than 0.2.
For the variant LRKN, the “one-hybrid fitness for binding parS DNA” value was no more than 0.2.
In the case of NDNT it was no more than 0.2.
Regarding GARP, the “one-hybrid fitness for binding parS DNA” value is no more than 0.2.
Take GWAG: the “one-hybrid fitness for binding parS DNA” value was no more than 0.2.
In the case of NCAN it was no more than 0.2; in that of DVRR, no more than 0.2; in that of PPLG, no more than 0.2.
In the case of HRYI it was no more than 0.2.
In the case of WTAA it was no more than 0.2; in that of CQSC, no more than 0.2.
Take TIID: the “one-hybrid fitness for binding parS DNA” value was no more than 0.2.
As to FLPN, the “one-hybrid fitness for binding parS DNA” value is no more than 0.2.
Regarding ASMT, the “one-hybrid fitness for binding parS DNA” value was no more than 0.2.
In the case of CHRI it was no more than 0.2.
Regarding LNSK, the “one-hybrid fitness for binding parS DNA” value was no more than 0.2.
Turning to QLWW, the “one-hybrid fitness for binding parS DNA” value is no more than 0.2.
In the case of QQMA it was no more than 0.2.
As to TFPA, the “one-hybrid fitness for binding parS DNA” value was no more than 0.2.
As for SPHP, the figure is no more than 0.2.
In the case of NIIY it was no more than 0.2; in that of TASY, no more than 0.2.
In the case of TAGH it was no more than 0.2.
As to SDHQ, the “one-hybrid fitness for binding parS DNA” value was no more than 0.2.
As for CMIT, the figure is no more than 0.2; as for EFVT, no more than 0.2; as for SSTR, no more than 0.2.
Regarding THQR, the “one-hybrid fitness for binding parS DNA” value is no more than 0.2.
In the case of RKQH it was no more than 0.2; in that of YVPT, no more than 0.2; in that of DVPM, no more than 0.2.
As for GTKV, the figure is no more than 0.2; as for CVFW, no more than 0.2; as for QNLM, no more than 0.2.
Take GPHD: the “one-hybrid fitness for binding parS DNA” value was no more than 0.2.
As for MGSD, the figure is no more than 0.2.
In the case of CGLG, the “one-hybrid fitness for binding parS DNA” value was no more than 0.2.
VASS: the “one-hybrid fitness for binding parS DNA” value was no more than 0.2.
In the case of ALWG it was no more than 0.2; in that of LRHY, no more than 0.2.
Turning to GMPS, the “one-hybrid fitness for binding parS DNA” value is no more than 0.2.
As for IKVE, the figure is no more than 0.2.
In the case of YMPM it was no more than 0.2; in that of RLDL, no more than 0.2; in that of QPPW, no more than 0.2.
In the case of TQPY it was no more than 0.2; in that of NLHT, no more than 0.2; in that of MAYR, no more than 0.2.
Consider AMLR, for which the “one-hybrid fitness for binding parS DNA” value is no more than 0.2.
Regarding SWIL, the “one-hybrid fitness for binding parS DNA” value is no more than 0.2.
For the variant RIWE, the “one-hybrid fitness for binding parS DNA” value is no more than 0.2.
In the case of PLNF it was no more than 0.2.
In the case of PWQA it was no more than 0.2.
In the case of AKMV it was no more than 0.2; in that of QKHG, no more than 0.2.
For WAVQ, the “one-hybrid fitness for binding parS DNA” value is no more than 0.2.
As for SDAN, the figure is no more than 0.2.
Regarding YLPH, the “one-hybrid fitness for binding parS DNA” value was no more than 0.2.
As for HMFL, the figure is no more than 0.2; as for EKLL, no more than 0.2; as for GCCR, no more than 0.2.
As for SVTS, the figure is no more than 0.2.
In the case of GWKT it was no more than 0.2; in that of NLPE, no more than 0.2; in that of SLAK, no more than 0.2.
In the case of ANKV, the “one-hybrid fitness for binding parS DNA” value is no more than 0.2.
As for RIGY, the figure is 0.51; as for RLAA, 0.582.
As for GSCF, the figure is no more than 0.2; as for PLSS, no more than 0.2.
In the case of GVDD it was no more than 0.2.
On to RKWE, for which the “one-hybrid fitness for binding parS DNA” value was no more than 0.2.
As for ARTR, the figure is no more than 0.2; as for TKSW, no more than 0.2.
Take LKLR: the “one-hybrid fitness for binding parS DNA” value was no more than 0.2.
In the case of YIPD it was no more than 0.2; in that of TIPK, no more than 0.2.
In the case of LRPI it was no more than 0.2; in that of RWGC, 0.61; in that of NEER, no more than 0.2.
As for RFHA, the figure is 0.53; as for QMHG, no more than 0.2; as for NSQV, no more than 0.2.
HEFP: the “one-hybrid fitness for binding parS DNA” value was no more than 0.2.
As for SGTG, the figure is no more than 0.2; as for IYWG, no more than 0.2; as for QYRP, no more than 0.2.
Regarding KIPT, the “one-hybrid fitness for binding parS DNA” value is no more than 0.2.
In the case of QTLD it was no more than 0.2; in that of SFCL, no more than 0.2.
As for TVEC, the figure is no more than 0.2; as for LFTP, no more than 0.2; as for HMKC, no more than 0.2.
As for FNNV, the figure is no more than 0.2; as for IFRM, no more than 0.2.
For the variant FPHM, the “one-hybrid fitness for binding parS DNA” value is no more than 0.2.
As for QFVR, the “one-hybrid fitness for binding parS DNA” value is no more than 0.2.
In the case of YINM it was no more than 0.2; in that of DNAQ, no more than 0.2.
For the variant TSKG, the “one-hybrid fitness for binding parS DNA” value is no more than 0.2.
In the case of ACDL it was no more than 0.2.
For the variant RQWP, the “one-hybrid fitness for binding parS DNA” value was no more than 0.2.
In the case of IAGS, the “one-hybrid fitness for binding parS DNA” value is no more than 0.2.
In the case of FLKE it was no more than 0.2; in that of MPDR, no more than 0.2.
As for VYDT, the figure is no more than 0.2.
For the variant AGNF, the “one-hybrid fitness for binding parS DNA” value is no more than 0.2.
As for GPDT, the figure is no more than 0.2.
As for VGYE, the figure is no more than 0.2; as for WLSK, no more than 0.2.
With SWLF, the “one-hybrid fitness for binding parS DNA” value was no more than 0.2.
As for KGTF, the figure is no more than 0.2.
In the case of HTQV it was no more than 0.2; in that of QWPP, no more than 0.2.
For RKCH, the “one-hybrid fitness for binding parS DNA” value was no more than 0.2.
As for GHLH, the figure is no more than 0.2; as for VPIW, no more than 0.2.
Consider IETC, for which the “one-hybrid fitness for binding parS DNA” value was no more than 0.2.
In the case of QRWW it was no more than 0.2; in that of APMF, no more than 0.2; in that of YRSM, no more than 0.2.
For EDND, the “one-hybrid fitness for binding parS DNA” value is no more than 0.2.
As for CVPS, the figure is no more than 0.2.
In the case of FSFC it was no more than 0.2; in that of IMPT, no more than 0.2; in that of KHRI, no more than 0.2.
In the case of SMIH it was no more than 0.2.
As to HRRW, the “one-hybrid fitness for binding parS DNA” value was no more than 0.2.
On to ELDS, for which the “one-hybrid fitness for binding parS DNA” value was no more than 0.2.
In the case of ELLI it was no more than 0.2.
As for ACHC, the figure is no more than 0.2; as for PRSR, no more than 0.2.
Turning to VIRR, the “one-hybrid fitness for binding parS DNA” value is no more than 0.2.
Turning to SSKP, the “one-hybrid fitness for binding parS DNA” value was no more than 0.2.
On to WCQT, for which the “one-hybrid fitness for binding parS DNA” value is no more than 0.2.
In the case of LVLV it was no more than 0.2; in that of NFPS, no more than 0.2.
As for GDDN, the figure is no more than 0.2.
